# Measured values as given in ChEMBL document CHEMBL4888484, “Replenishing the malaria drug discovery pipeline: Screening and hit evaluation of the MMV Hit Generation Library 1 (HGL1) against asexual blood stage Plasmodium falciparum ,using a nano luciferase reporter read-out” (2022).
# Among all 150,000 compounds or so, about 540 (0.36%) showed an effect of 50% or more. The list shows a part of the results.
# Tested on: Plasmodium falciparum
# Assay: Primary screen in NF54 nanoGlo assay, in single point, at 2uM, 72h; a lower Z score goes with more inhibition
# Assay type: functional, Erythrocyte
# Details: timepoint 72 hour
Structure (SMILES),% Inhibition [%],Z score
CC[C@H](Nc1ccc(N2CCNC(=O)C2)nc1)c1ccccc1,-5,0.97
CC1CCc2c(cc(-c3ccccc3)n2-c2ccc(C(=O)NCC3CCCO3)cc2)C1 (stereo unspecified),-12,2.25
c1ccc(-n2nc(-c3nnc(-c4ccncc4)[nH]3)c(N3CCCC3)n2)cc1,-49,5.73
CCCC(C)(CC)C(=O)NCC1CCCC(O)C1 (stereo unspecified),2,-0.27
CC[C@H](C)C(=O)N1CCCN(C2=NS(=O)(=O)C(c3ccccc3)=C2C)CC1,-2,0.45
CCn1cc(-c2cc(-c3sc(N)nc3C)nc(N)c2C#N)cn1,5,-1.06
O=C(C1CCC1)N1CCC2(CC1)C[C@@H](Cc1cccc(F)c1)CCO2,-9,1.13
CCOc1ccc(N2C[C@@H](C(=O)NCc3ccc(C)n3C)CC2=O)cc1,-5,0.86
O=C1CNC(=O)N1CC(=O)N(Cc1ccccc1)[C@H]1CCCC[C@@H]1O,6,-0.72
O=C(c1ccccn1)N1CC[C@H]2COC(=O)N2c2cc(F)ccc2C1,5,-0.68
OCC1(CN[C@H](C2=CCCCC2)C2CCCCC2)COC1,-5,0.91
COc1ccc(-c2cc(C[C@@H]3CC[C@H](O)[C@@H](CNC(=O)Nc4ccccc4)O3)no2)cc1,-1,0.12
COc1ccc(-c2nc(CCNS(=O)(=O)c3ccc(C)cc3C)n[nH]2)cc1,-11,2.09
Cc1cc(Br)c(OCc2ccc(-c3nnco3)cc2)c(Br)c1,-3,0.45
COC[C@H](C)N(Cc1ccccc1OC)Cc1ccnn1C,-14,1.7
CC(C)(Oc1cc2c(cc1-c1cccc(C(N)=O)c1)CCO2)C(=O)O,-2,0.31
CCCn1cnc2cc(-c3noc(-c4sc(C)nc4C)n3)ccc21,7,-0.96
CC1CN(CN2C(=O)NC3(CCCCC3)C2=O)CC(C)O1 (stereo unspecified),15,-1.72
Cc1sc2ncnc(NC(=O)c3cccc(C#N)c3)c2c1C,0,-0.07
CN(C[C@@H](O)Cc1ccccc1)S(=O)(=O)C1COC1,2,-0.41
Cc1ccc2oc(NCC3(S(C)(=O)=O)CCOCC3)nc2c1,-2,0.23
O=C(NCc1ccccn1)c1ccc(Nc2c(Oc3ccc4c(c3)CCC4)cnn(-c3ccc(Cl)c(Cl)c3)c2=O)cc1,-8,0.73
Cc1cc(NC(=O)c2cn([C@H]3CCS(=O)(=O)C3)nc2C(C)C)[nH]n1,-7,0.8
O=S(=O)(N1CCOCC1)N1CC[C@H](Oc2ccncc2Cl)C1,3,-0.6
Nc1cc(C(=O)N2CCC[C@]3(CCC(=O)N(C4CCCC4)C3)C2)n[nH]1,1,-0.18
O=C1N(CC2CC2)CCC[C@@]12CCN(Cc1c[nH]nc1-c1cccc(F)c1)C2,-14,2.04
Cc1nnc(-c2c(C)[nH]c(C)c2S(=O)(=O)Nc2ccc(Cl)cc2Cl)o1,-18,3.48

Structure (SMILES),% Inhibition [%],Z score
C=CCN1CCC(NCCC(C)(C)C)CC1,-7,0.94
Cn1cnc(-c2cccc(C3CCC3)c2)c1CO,5,-0.98
O=C(Nc1ccc(Cl)cc1)C(=O)N1CCOCC1,-12,1.02
CC(C)NC(=O)NCCc1cccs1,-14,2.24
CC1CCN(C[C@@H]2OC[C@H](NCc3ccc(F)cc3)[C@H]2O)CC1,16,-1.88
CCCC[C@H](CC)C(=O)NCc1cccc(NC(N)=O)c1,-9,1.27
CCc1nnc(CN[C@@H](C)c2cc(C)oc2C)o1,-3,0.5
COCc1nc(C)c(CNC(=O)[C@H](C)n2ccnc2)s1,-5,0.64
O=C(Cn1nc2c(Oc3ccccc3)nc3ccccc3n2c1=O)Nc1ccc2c(c1)OCO2,-15,2.05
CCN1CCN(C(=O)CCc2ccccc2)c2cccnc21,6,-0.67
COc1ccc(CC(=O)NC[C@H]2Cc3cc(C)cc(-c4cc(C(C)=O)ccc4F)c3O2)cc1OC,18,-2.31
Cc1ccccc1CS(=O)(=O)[C@@H](C)C(=O)NC(C)(C)C,-3,0.56
CCN(CCc1ccccc1)C(=O)c1conc1C1CC1,-13,1.72
Cc1nn(C)c(Cl)c1C(=O)N1CCC(C(=O)Nc2ccc3c(c2)OCO3)CC1,0,0.02
CC(CC1CCCC1)C(=O)NC(C)c1nnc2c(=O)[nH]ccn12 (stereo unspecified),0,-0.08
Cc1ccc(CC(=O)N2CCC[C@H]2c2ccncc2)s1,4,-0.3
CC(O)CC1CCCCN1C(=O)Cc1cnn(C)c1 (stereo unspecified),5,-0.72
Cc1ncc(Cl)c(C(=O)N2CCC[C@H](c3noc(C(C)C)n3)C2)n1,-5,0.6
CCCC(C(=O)NC1CCc2c(O)cccc21)N1CCN(C(=O)OC(C)(C)C)CC1 (stereo unspecified),-9,1.51
CC1(C)CN(C(=O)NCCc2cnc3c(Cl)cnn3c2)CCc2ccccc21,-15,1.27
C[C@@H]1CC(=O)N[C@H](C(=O)NCCn2cnnc2C2CC2)C1,15,-1.94
CC(C)N(CC(=O)Nc1nccs1)Cc1ccccn1,65,-10.08
COC(=O)c1cc(CN(C)[C@@H](C)c2cccc(O)c2)c[nH]1,-5,0.55
C[C@@H](c1ccc(C(=O)NCc2nc(-c3ccccn3)no2)o1)N1CCCCC1,-7,1.13
O=C(c1nc2ccccc2[nH]c1=O)N1CCC(c2nccn2CC2CC2)CC1,-2,0.18
CCCCc1nc(CN2CCC(C(=O)O)(n3cccn3)CC2)c[nH]1,2,-0.37
